In the RNAGym collection of RNA variant scans (doi:10.1073/pnas.2313332121):
Variants at the background level are over-represented here.

B1: TPR 5TU (parent)
chain: GGAUCUUCUCGAUCUAACAAAAAAGACAAAUCUGCCACAAAGCUUGAGAGCAUCUUCGGAUGCAGAGGCGGCAGCCUUCGGUGGCGCGAUAGCGCCAACGUUCUCAACUAUGACACGCAAAACGCGUGCUCCGUUGAAUGGAGUUUAUCAUG

Variants of: B1
Assay: polymerase ribozyme fitness, log enrichment relative to wild type (log ratio); higher = more active; in vitro selection for triplet polymerase activity
Outline: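 Mutant libraries were PCR-built and transcribed for each subunit of a heterodimeric triplet polymerase ribozyme and selected for one round in triplicate at −7 °C, frozen, before gel excision of extended constructs and streptavidin-bead capture. Input and output libraries were Illumina-sequenced, keeping genotypes with ≥10 input reads and ≥1 read per output. Fitness is a logarithmic ratio of genotype to wild-type enrichment, in base 2, using inverse-variance-weighted replicate averages.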

Row | Variant | polymerase ribozyme fitness (log ratio)
1 | U56A G58A A89C C95G A122C G124C G141C | -1.54
2 | G58C C75U G88C C93G C105A G140U G141U | ≤ -4.2
3 | U56A C96U C116U G143A | -3.36
4 | C57U C87U C93A G152A | ≤ -4.2
5 | C57A A91U G100A A107G A110G | ≤ -4.2
6 | U56A C103U | -0.0268
7 | U56A C103G | -0.914
8 | G58A A142U | -0.199
9 | G58A A89U C93U G94U C114U | ≤ -4.2
10 | C57U G59C G68C C85G C93G U101G | ≤ -4.2
11 | C57U A89G U127G C131A | ≤ -4.2
12 | G58C C63U C95G | -2.14
13 | C57G G67U G92C A106C | ≤ -4.2
14 | U56G G59C C85G U135A | -2.51
15 | C57A U139A | -3.84
16 | U56A G117C | -0.369
17 | C57U C96G U130A | -3.15
18 | C57U G67A A137U U148G | ≤ -4.2
19 | C57A G80C A137C G143U | ≤ -4.2
20 | U56A C96U G133A | ≤ -4.2
21 | C57U U61A A89U A106G A122G A150G | -3.73
22 | U55A U139G | -0.865
23 | U55C A60C A89G A119U A150U | ≤ -4.2
24 | U55A U82C | -0.191

Row | Variant | polymerase ribozyme fitness (log ratio)
25 | C57G G68U G94U C116G | ≤ -4.2
26 | U56A G92C | -1.7
27 | U56A G92A | -2.28
28 | C57U G94C C116U | 0.445
29 | U55G C87U U101G U104G C114G A142G U144G | ≤ -4.2
30 | C57U C63U A66G A91U A106C G143U | ≤ -4.2
31 | C57G G83U | -0.732
32 | G58C A73G C85U A89C U127G U144C | ≤ -4.2
33 | C57U G83U C103U G126A C129G | ≤ -4.2
34 | U56A G58C G92U C93A C118A | -3.82
35 | U55G G86A U134A | -3.62
36 | U56A G84U A89C A142U | -3.24
37 | C57U G58C C76G G92A A97U | ≤ -4.2
38 | G58C C63G C96G | -0.61
39 | C57U U77A A107G | ≤ -4.2
40 | U56A C79U C118G C132A | -4.05
41 | U56G U78G C79U G86A C87G C95A A115U G152C | ≤ -4.2
42 | U55G C93G C123A | ≤ -4.2
43 | U56A A91U | ≤ -4.2
44 | U55G A106C | -0.416
45 | U55C G71C G84C C85G C96A U101C U139A G141U C149A | ≤ -4.2
46 | C57G G94A G141C | -0.316
47 | C57A C79A G81A C96G | ≤ -4.2
48 | U56C C76A A91U A97G | ≤ -4.2

Row | Variant | polymerase ribozyme fitness (log ratio)
49 | C57U G140C | -3.55
50 | U55C A73U A97U U144G | -1.48
51 | G58A A60G C69U G100C | ≤ -4.2
52 | C57U C105A | -0.73
53 | C57U C87G G141A | ≤ -4.2
54 | U56G C114U | -1.85
55 | U55G C57U C63G A66U G94C U104G | ≤ -4.2
56 | C57G A64C A107C | ≤ -4.2
57 | C57G C85G C93G C108G U127G | ≤ -4.2
58 | C57U A66U C79U C87A A89U | ≤ -4.2
59 | U55G C79G C96A A119C | ≤ -4.2
60 | C57U A60C C79U G92U | ≤ -4.2
61 | C57U A91C | ≤ -4.2
62 | U56A U134A G143C | -4.04
63 | C57A C69G A91U A119G G128A G140C U145G | ≤ -4.2
64 | C57A | -0.00233
65 | C57U | -0.0371
66 | C57G | -0.448
67 | U56A C85U | -0.564
68 | U56A C85G | -2.44
69 | C57G C96A U139G | -0.754
70 | C57A C87A C116G U127A C129U A137G C149U | ≤ -4.2
71 | U56A G68A G80A C93U | ≤ -4.2
72 | U56A C57U | 0.273

Row | Variant | polymerase ribozyme fitness (log ratio)
73 | G58A A73C | -1.62
74 | C57A A150U | 1.72
75 | C57A A60C C85A | -3.08
76 | U56A G71U C125G | -3.78
77 | U56A A60U A66G A73G C95G U101C U109C A120G | ≤ -4.2
78 | C57G A120U U144A | -1.24
79 | U56A G136A | -0.463
80 | G58C A64G G65A G71A C95U U101G | ≤ -4.2
81 | C57A G92A A150C | ≤ -4.2
82 | C57A A73G G80C C114U U134A | ≤ -4.2
83 | C57G C85A G94A C131A U139C | ≤ -4.2
84 | C57U A89C G92C G126U A138U U139C U148G G152U | ≤ -4.2
85 | U55A U77A | ≤ -4.2
86 | G58A U82C A147C C149G | ≤ -4.2
87 | C57A G92A C93U C105A A107G G128A | ≤ -4.2
88 | C57G G84U G136C | ≤ -4.2
89 | G58C C87A A106G | ≤ -4.2
90 | U55G G84A A89U C103U | -1.64
91 | U55A U56C G83C | ≤ -4.2
92 | G58A G59C C95U C99U A107U C132U U145A | ≤ -4.2
93 | U56C A120U A122G U127C C129G U145A C149U | ≤ -4.2
94 | U56A A97G | -0.89
95 | U55G U90A C103G G143C | ≤ -4.2
96 | C57G C79U | -2.13

Row | Variant | polymerase ribozyme fitness (log ratio)
97 | C57U G81A U82G C85G | ≤ -4.2
98 | U56A A142U | -0.643
99 | U56C G58A G84A U145G | 0.113
100 | U56A G71U U78G C85U G143U | ≤ -4.2
101 | C57U C75G C87A A98U A120C | ≤ -4.2
102 | G58C C69G A91U U102G A142C | ≤ -4.2
103 | C57G A97U A107C | ≤ -4.2
104 | G58C C75U G86A C105A | ≤ -4.2
105 | G58A C87U C93A U130G | ≤ -4.2
106 | C57A A73C C87A C103A C123U U148A | ≤ -4.2
107 | G58A A66G G81A A115C C149G | ≤ -4.2
108 | G58C C85A A110C U111G | ≤ -4.2
109 | C57G A91G | -4.08
110 | U56C C108G C116A | ≤ -4.2
111 | C57G A91G G100A C123A C131A | ≤ -4.2
112 | G58A A97C C103A A110G G112C | ≤ -4.2
113 | C57U A97G G128C G141C | -3.99
114 | U55G G71U | -1.86
115 | U56A U109C | -3.5
116 | G58C A66C C87G U135G U144C | ≤ -4.2
117 | G58C C103A U145G | -1.84
118 | C57U C75G C76G C85G U104A | ≤ -4.2
119 | G58A U61A A107G C118G A119G | ≤ -4.2
120 | U56G C116G | -0.0028

Row | Variant | polymerase ribozyme fitness (log ratio)
121 | U56G G84A G133A | ≤ -4.2
122 | C57U U61G G86A A89U | -3.74
123 | G58A G59U G62C G67U A73U C96A U130G A138U A150G | ≤ -4.2
124 | U56A G81A C103G A121G A122U | -1.56
125 | C57U C95U A115C C125U U134A U139G | ≤ -4.2
126 | C57U A110G | -2.85
127 | G58C A89G | -0.995
128 | U56A C76G G81A G88C U139G | ≤ -4.2
129 | U55G C57G G74A G84A C123U G128U | ≤ -4.2
130 | C57A U135C | -1.62
131 | U56A G92A C108U C118U | ≤ -4.2
132 | U55G C85G C132U | -2.9
133 | C57U C116G | 0.474
134 | U55G C99A C108G U134G | ≤ -4.2
135 | C57U G84C C95A C116G G136U A138C | -4.17
136 | C57A C69U C87G C114U U139G G140U U146C | ≤ -4.2
137 | U56A A113G | -1.32
138 | U55G G88C C95U A98G A110C A142C A150C | ≤ -4.2
139 | C57U G70A A91C A107C U135G | ≤ -4.2
140 | U56A G88U C114A | ≤ -4.2
141 | U56A A91G U148C | -3.72
142 | G58C C87U A115G C116G A121U G136U | -4.12
143 | C57U G84A A98U C129U A147U | -1.13
144 | C57A C87G U134A U135C | ≤ -4.2

Row | Variant | polymerase ribozyme fitness (log ratio)
145 | U56G G88A | ≤ -4.2
146 | C57A G70A G86U C96A C99U U134C U146C | ≤ -4.2
147 | U56A U82C A106G A115C U151A | ≤ -4.2
148 | U56C U109A U127C | -3.65
149 | U56A U78G G92U C114U C116A A137C G152U | ≤ -4.2
150 | C57A C76U C85U G92C G126C | -2.15
151 | U55A U109C U111G C114A | ≤ -4.2
152 | U55C C85U A97U | -1.16
153 | C57A G59C G84U A107G A115U A137G C149U | ≤ -4.2
154 | U56G G58C C99G | -2.63
155 | U56A A66G C95U C99U A120G | ≤ -4.2
156 | U55G C85G | -1.66
157 | G58C C72U A150U | 0.398
158 | C57U C85A G100U A115G U135A G141C | ≤ -4.2
159 | U56A G62A C76U G81A C87U C95U | -1.49
160 | G58A G83U | 0.174
161 | C57G G86A C95U C99U G141U | -3.92
162 | G58C A66G G140U | ≤ -4.2
163 | C57A G68A C93U C125A | ≤ -4.2
164 | U56A A89U | -0.431
165 | U56A C96U | -0.499
166 | U56A U61A C96U U101A | -1.95
167 | G58A C85G C93U C103G C129U G141U | ≤ -4.2
